Laboratory results from the supplement of paper PMC9446081.
Among all 39,000 compounds or so, about 220 (0.56%) showed activity. The list shows a part of the results.

What follows are compounds tested on Escherichia coli K-12 BW25113 (assay: relative growth (OD600 normalised to plate interquartile mean) (fraction); higher = less growth inhibition, active = 0.2 or less). Conditions: 50 µM; LB; incubation time: overnight (16-24 h).
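Further: static incubation at 37 °C against the wild-type strain, values averaged over two biological replicates.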

Structure (SMILES) | relative growth
O=C(NCCCN1CCOCC1)Nc1ccc(Cc2ccc(NC(=O)NCCCN3CCOCC3)cc2)cc1 | inactive: 0.996
Cc1noc(C)c1NC(=O)Nc1ccc2c(c1)C(=O)N([C@H](C)CO)C[C@H](C)[C@@H](CN(C)C(=O)Nc1ccc3c(c1)OCO3)OCCCC[C@@H](C)O2 | inactive: 0.977
Cc1noc(C)c1NC(=O)Nc1ccc2c(c1)CC(=O)N([C@H](C)CO)C[C@H](C)[C@@H](CN(C)Cc1ccc(Cl)c(Cl)c1)O2 | inactive: 0.986
Cc1ccc(S(=O)(=O)Nc2ccc3c(c2)CC(=O)N([C@@H](C)CO)C[C@H](C)[C@H](CN(C)Cc2ccc(Cl)c(Cl)c2)O3)cc1 | inactive: 1.02
Oc1cccc(-c2nc3ccc4ccccc4c3c3c2CCC3)c1 | inactive: 0.994
C[C@@H]1O[C@@H](O[C@H]2[C@H](OC(=O)[C@]34CCC(C)(C)C[C@H]3C3=CC[C@H]5[C@@]6(C)CC[C@H](O[C@@H]7O[C@H](CO)[C@@H](O)[C@H](O)[C@H]7O)C(C)(C)[C@@H]6CC[C@@]5(C)[C@]3(C)C[C@H]4O)OC[C@H](O)[C@@H]2O)[C@H](O)[C@H](O[C@@H]2OC[C@H](O)[C@H](O)[C@H]2O)[C@H]1O[C@@H]1OC[C@@H](O)[C@H](O[C@@H]2OC[C@H](O)[C@H](O)[C@H]2O)[C@H]1O | inactive: 0.997
O=C1O[C@@H](c2ccccc2)[C@@H](c2ccccc2)N2[C@@H](c3ccc(OCCO)cc3)[C@]3(C(=O)Nc4ccc(C#CC5=CCCCC5)cc43)[C@@H](C(=O)N3CCN(c4ncccn4)CC3)[C@H]12 | inactive: 1.07
C[C@H](CO)N1C[C@H](C)[C@H](CN(C)S(C)(=O)=O)Oc2cc(C#Cc3ccccc3)ccc2S1(=O)=O | inactive: 1.02
COCC(=O)Nc1ccc2c(c1)C(=O)N(C)[C@@H]1CC[C@@H](CC(=O)N3CCc4ccccc4C3)O[C@@H]1CO2 | inactive: 0.989
C[C@H]1CCCCO[C@H](CN(C)S(=O)(=O)c2ccc(Cl)cc2)[C@@H](C)CN([C@@H](C)CO)C(=O)c2cc(NC(=O)Nc3cccc4ccccc34)ccc2O1 | inactive: 0.988
C[C@@H]1CN([C@@H](C)CO)C(=O)c2cc(NC(=O)Nc3ccccc3)ccc2O[C@@H]1CN(C)C(=O)Nc1cccc2ccccc12 | inactive: 1.03
Nc1cnc2ncc(N)cc2c1 | inactive: 0.988
C[C@H](CO)N1C[C@H](C)[C@H](CN(C)Cc2ccc(Oc3ccccc3)cc2)Oc2ccc(NS(=O)(=O)c3ccc(F)cc3)cc2CC1=O | inactive: 1.01
CC(C)NC(=O)N(C)C[C@@H]1OCCCC[C@H](C)Oc2ccc(NC(=O)C3CCCCC3)cc2C(=O)N([C@@H](C)CO)C[C@H]1C | inactive: 0.978
C[C@H](CO)N1C[C@H](C)[C@H](CN(C)S(=O)(=O)c2cccs2)Oc2c(NS(C)(=O)=O)cccc2C1=O | inactive: 0.987
C[C@@H]1CCCCO[C@@H](CN(C)CC2CC2)[C@H](C)CN([C@@H](C)CO)C(=O)c2cc(NS(C)(=O)=O)ccc2O1 | inactive: 0.976
C[C@H]1CN([C@@H](C)CO)C(=O)c2cc(N(C)C)ccc2O[C@@H]1CN(C)S(=O)(=O)c1ccc(Cl)cc1 | inactive: 1
C[C@H](CO)N1C[C@H](C)[C@@H](CN(C)Cc2ccc3c(c2)OCO3)OCCCC[C@H](C)Oc2ccc(NC(=O)CCC(F)(F)F)cc2C1=O | inactive: 1.01

Structure (SMILES) | relative growth
COc1ccc(NC(=O)Nc2ccc3c(c2)C(=O)N([C@H](C)CO)C[C@H](C)[C@H](CN(C)CC2CCCCC2)OCCCC[C@H](C)O3)cc1 | inactive: 0.98
CN1CC(=O)NC1=N | inactive: 0.974
CCS(=O)(=O)N1C[C@]2(CN(Cc3cc(ccc3F)F)[C@@H](CO)c3c2c2ccc(cc2n3C)OC)C1 | inactive: 1.02
O=C(N/N=C/[C@H](O)[C@@H](O)[C@H](O[C@@H]1O[C@H](CO)[C@H](O)[C@H](O)[C@H]1O)[C@H](O)CO)c1ccccn1 | inactive: 1.01
C[C@H](CO)N1C[C@H](C)[C@@H](CN(C)C(=O)Nc2cccc3ccccc23)OCCCC[C@H](C)Oc2ccc(NC(=O)CCC(F)(F)F)cc2C1=O | inactive: 1.02
COCC(=O)N1CC[C@]2(CC1)CN([C@H](CO)c1c2c2ccc(cc2n1C)OC)C(=O)CN1CCOCC1 | inactive: 1
O=C(C[C@H]1CC[C@H](NC(=O)CN2CCOCC2)[C@H](CO)O1)NC1CCC1 | inactive: 0.998
COCCNC(=O)C[C@H]1C[C@@H]2c3cc(NC(=O)COC)ccc3O[C@@H]2[C@@H](CO)O1 | inactive: 0.996
C[C@@H]1CCCCO[C@H](CN(C)S(=O)(=O)c2cccs2)[C@H](C)CN([C@@H](C)CO)C(=O)c2cc(NC(=O)Cc3ccccc3)ccc2O1 | inactive: 1.01
C[N+](C)(C)CCCCCCNC(=O)[C@H]1C[C@H]2C(=O)N[C@@H](Cc3ccccc3)C(=O)N2[C@H]1c1ccc(O)cc1 | inactive: 1.01
Cc1ccc(S(=O)(=O)N(C)C[C@H]2Oc3ccc(NC(=O)c4ccncc4)cc3CC(=O)N([C@@H](C)CO)C[C@@H]2C)cc1 | inactive: 0.99
C[C@H](CO)N1C[C@H](C)[C@H](CN(C)Cc2ccc(Oc3ccccc3)cc2)Oc2ccc(NS(=O)(=O)c3ccc(Cl)cc3)cc2CC1=O | inactive: 0.996
Cc1cn(-c2cc(NC(=O)c3ccc(C)c(Nc4nccc(-c5cccnc5)n4)c3)cc(C(F)(F)F)c2)cn1 | inactive: 0.812
C[C@H]1CN([C@@H](C)CO)C(=O)CCCn2cc(nn2)CO[C@H]1CN(C)C(=O)Nc1cccc(Oc2ccccn2)c1 | inactive: 0.982
CCC(=O)N1Cc2cc(C(=O)Nc3nccs3)nc(-c3cccc(-c4ccccc4OC)c3)c2[C@H]1CCO | inactive: 1.01
C[C@@H]1CCCCO[C@@H](CN(C)C(=O)NC2CCCCC2)[C@@H](C)CN([C@H](C)CO)C(=O)c2cc(NS(=O)(=O)c3ccccc3)ccc2O1 | inactive: 1.02
COc1ccc(S(=O)(=O)N(C)C[C@H]2OCCCC[C@H](C)Oc3ccc(NC(=O)Nc4cccc5ccccc45)cc3C(=O)N([C@@H](C)CO)C[C@H]2C)cc1 | inactive: 1.04
